# Some of the results follow. Most values come without repeats; read them as rough.
# Experiments:
# Assay in all cases: cell count relative to DMSO control; melanoma cells; higher = more viable cells
# Details in all cases: library dose: low library concentration; 72 h
# MZ2-MEL = system: MZ2-MEL
# MeWo = system: MeWo
# RPMI7951 = system: RPMI7951
# RVH-421 = system: RVH-421
# SkMel28 = system: SkMel28
# SkMel30 = system: SkMel30
# SkMel5 = system: SkMel5
# UACC257 = system: UACC257
# UACC62 = system: UACC62
# 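Also: cell number obtained by counting DAPI-stained nuclei in high-throughput microscope images with image analysis software, screen run in 1,536-well plates.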
Structure (SMILES),cell count (MZ2-MEL) [%],cell count (MeWo) [%],cell count (RPMI7951) [%],cell count (RVH-421) [%],cell count (SkMel28) [%],cell count (SkMel30) [%],cell count (SkMel5) [%],cell count (UACC257) [%],cell count (UACC62) [%]
"C=CCn1c(=O)c2cnc(Nc3ccc(N4CCN(C)CC4)cc3)nc2n1-c1cccc(C(C)(C)O)n1 + O=C(Nc1ccccc1)c1cc([N+](=O)[O-])ccc1Cl [GW9662] (first compound 0.02 µM, partner dose 2 µM)",91.7,95.6,107,84.8,101,103,90,72.2,71.2
"C=CCn1c(=O)c2cnc(Nc3ccc(N4CCN(C)CC4)cc3)nc2n1-c1cccc(C(C)(C)O)n1 + COC(=O)c1sccc1S(=O)(=O)Nc1ccc(Nc2ccccc2)cc1OC [GSK0660] (first compound 0.02 µM, partner dose 1 µM)",97.7,86.3,105,89.7,82.1,104,82.4,83.9,79
"CN(C)S(=O)(=O)c1ccc2c(c1)/C(=C/c1cc3c([nH]1)CCCC3)C(=O)N2 + CCN(CC)CCCCNc1ncc2cc(-c3cc(OC)cc(OC)c3)c(NC(=O)NC(C)(C)C)nc2n1 [PD173074] (first compound 0.4 µM, partner dose 0.1 µM)",95.9,92,91.2,14.2,91.9,117,75.6,78.3,83.3
"C[C@]1(c2nc3c(C(N)=O)cccc3[nH]2)CCCN1 [Veliparib] + COC(=O)c1sccc1S(=O)(=O)Nc1ccc(Nc2ccccc2)cc1OC [GSK0660] (first compound 1.4 µM, partner dose 1 µM)",92.1,91.1,118,91.5,83.3,97.5,88.7,89.6,79.7
"C=CCn1c(=O)c2cnc(Nc3ccc(N4CCN(C)CC4)cc3)nc2n1-c1cccc(C(C)(C)O)n1 + CCN(CC)CCCCNc1ncc2cc(-c3cc(OC)cc(OC)c3)c(NC(=O)NC(C)(C)C)nc2n1 [PD173074] (first compound 0.02 µM, partner dose 0.1 µM)",95.9,96.3,102,95.5,80.7,75.3,90.7,93.1,84.2
"NCC(=O)Nc1ccc(-n2nc(C(F)(F)F)cc2-c2ccc3c(ccc4ccccc43)c2)cc1 + Cn1cc(/C=C2\C(=O)Nc3cccnc32)c2ccccc21 [GW441756] (first compound 1 µM, partner dose 0.4 µM)",87.8,56.1,130,114,84.1,52.5,72.2,79.4,80.6
"NCC(=O)Nc1ccc(-n2nc(C(F)(F)F)cc2-c2ccc3c(ccc4ccccc43)c2)cc1 + CCN(CC)CCCCNc1ncc2cc(-c3cc(OC)cc(OC)c3)c(NC(=O)NC(C)(C)C)nc2n1 [PD173074] (first compound 1 µM, partner dose 0.1 µM)",101,58.8,102,132,72.5,60.7,95,90.8,101
"CO[C@@H]1[C@H](N(C)C(=O)c2ccccc2)C[C@H]2O[C@]1(C)n1c3ccccc3c3c4c(c5c6ccccc6n2c5c31)C(=O)NC4 [Midostaurin] + CCN(CC)CCCCNc1ncc2cc(-c3cc(OC)cc(OC)c3)c(NC(=O)NC(C)(C)C)nc2n1 [PD173074] (first compound 0.08 µM, partner dose 0.1 µM)",95,100,101,94.3,97.2,105,94.5,73.5,91.6
"C[C@]1(c2nc3c(C(N)=O)cccc3[nH]2)CCCN1 [Veliparib] + Oc1nc(-c2ccc(C(F)(F)F)cc2)nc2c1CSCC2 [XAV939] (first compound 1.4 µM, partner dose 2 µM)",94.6,98.6,70.2,102,94.4,88.9,79.6,82,74.7
"C=CCn1c(=O)c2cnc(Nc3ccc(N4CCN(C)CC4)cc3)nc2n1-c1cccc(C(C)(C)O)n1 + Oc1cc(-c2nc(-c3ccccc3)[nH]c2-c2ccncc2)ccc1Cl [L779450] (first compound 0.02 µM, partner dose 0.2 µM)",82.9,92.7,92.7,69.1,66.3,96.5,73.8,68.2,57.2
"C[C@]1(c2nc3c(C(N)=O)cccc3[nH]2)CCCN1 [Veliparib] + O=C(O)C(=O)Nc1sc2c(c1C(=O)O)CCNC2 [TCS401] (first compound 1.4 µM, partner dose 1.66667 µM)",102,112,97.5,106,98.8,107,85.9,78.5,70.1
"CO[C@@H]1[C@H](N(C)C(=O)c2ccccc2)C[C@H]2O[C@]1(C)n1c3ccccc3c3c4c(c5c6ccccc6n2c5c31)C(=O)NC4 [Midostaurin] + O=C(Nc1ccccc1)c1cc([N+](=O)[O-])ccc1Cl [GW9662] (first compound 0.08 µM, partner dose 2 µM)",96.4,93.4,108,100,96.3,95.3,107,105,92.1
"Cc1nc(Nc2ncc(C(=O)Nc3c(C)cccc3Cl)s2)cc(N2CCN(CCO)CC2)n1 [dasatanib] + N#Cc1c(O)c2c(-c3ccc(-c4ccccc4O)cc3)csc2[nH]c1=O [A769662] (first compound 0.004 µM, partner dose 2 µM)",77.8,96.7,68.8,90.8,75.1,93.3,92.9,79.7,95
"OCCn1cc(-c2cnc3nnn(Cc4ccc5ncccc5c4)c3n2)cn1 + COC(=O)c1sccc1S(=O)(=O)Nc1ccc(Nc2ccccc2)cc1OC [GSK0660] (first compound 1 µM, partner dose 1 µM)",93,94.9,118,91.8,95.2,104,109,95.1,89.4
"CN(C)S(=O)(=O)c1ccc2c(c1)/C(=C/c1cc3c([nH]1)CCCC3)C(=O)N2 + O=C1NC(=O)/C(=C/c2ccc(-c3ccc(F)cc3O)o2)S1 [AS252424] (first compound 0.4 µM, partner dose 1 µM)",106,86.1,114,116,83.1,84.4,83.4,86.3,66.9
"NCC(=O)Nc1ccc(-n2nc(C(F)(F)F)cc2-c2ccc3c(ccc4ccccc43)c2)cc1 + COc1cc2ncnc(Nc3ccc(Oc4ccccc4)cc3)c2cc1OC [SrcI1] (first compound 1 µM, partner dose 2 µM)",80.1,52.5,119,94.7,70,58.7,83.3,102,95.2
"OCCn1cc(-c2cnc3nnn(Cc4ccc5ncccc5c4)c3n2)cn1 + COc1cc(N2CCC(N3CCN(C)CC3)CC2)ccc1Nc1ncc(Cl)c(Nc2ccccc2S(=O)(=O)C(C)C)n1 [NVP-TAE684] (first compound 1 µM, partner dose 0.08 µM)",93.7,103,102,74.3,96.4,92.3,90.5,108,88.1
"C=CCn1c(=O)c2cnc(Nc3ccc(N4CCN(C)CC4)cc3)nc2n1-c1cccc(C(C)(C)O)n1 + COc1ccc(COc2ccc(Cc3cnc(N)nc3N)cc2OC)cc1 [GW2580] (first compound 0.02 µM, partner dose 1 µM)",100,103,91.8,81.7,82.2,100,79.5,82,97.3
"C=CCn1c(=O)c2cnc(Nc3ccc(N4CCN(C)CC4)cc3)nc2n1-c1cccc(C(C)(C)O)n1 + COc1ccc(-c2ccc3c(N4CCOCC4)nc(N4C[C@@H](C)O[C@@H](C)C4)nc3n2)cc1CO [KU0063794] (first compound 0.02 µM, partner dose 0.02 µM)",99.4,93.5,101,92.6,75.6,93.9,75.5,78,86.9
"NCC(=O)Nc1ccc(-n2nc(C(F)(F)F)cc2-c2ccc3c(ccc4ccccc43)c2)cc1 + O=C1NC(=O)/C(=C/c2ccc(-c3ccc(F)cc3O)o2)S1 [AS252424] (first compound 1 µM, partner dose 1 µM)",81.9,56.2,95.5,91.5,73.6,57.4,84.7,87,80
"Cc1nc(Nc2ncc(C(=O)Nc3c(C)cccc3Cl)s2)cc(N2CCN(CCO)CC2)n1 [dasatanib] + COc1ccc(COc2ccc(Cc3cnc(N)nc3N)cc2OC)cc1 [GW2580] (first compound 0.004 µM, partner dose 1 µM)",78.2,87.4,65.3,95.2,63.1,114,91.2,72.7,89.5
"NCC(=O)Nc1ccc(-n2nc(C(F)(F)F)cc2-c2ccc3c(ccc4ccccc43)c2)cc1 + O=C(Nc1ccccc1)c1cc([N+](=O)[O-])ccc1Cl [GW9662] (first compound 1 µM, partner dose 2 µM)",87.7,52.1,97.4,91,84,55.7,89,83.5,82.7
"C[C@]1(c2nc3c(C(N)=O)cccc3[nH]2)CCCN1 [Veliparib] + O=S(=O)(c1ccccc1)N(CC(F)(F)F)c1ccc(C(O)(C(F)(F)F)C(F)(F)F)cc1 [T0901317] (first compound 1.4 µM, partner dose 1.4 µM)",90.1,91.4,97.7,96.8,74.7,87.9,82.1,87.2,82.2

# Reference: the supplement of paper PMC4604168 (melanoma cell lines)
